Data taken from a collection of fitness landscapes (doi:10.1016/j.celrep.2020.107928).
Over roughly 81,000 sequences, “one-hybrid fitness for binding NBS DNA” has its median near -0.1; the highest 2% begin near 0.36. Some of the results follow.

B1: Caulobacter ParB omega fusion; a variant is named by its letters at X, in order, B8GW30 (parent)
chain: MESVVVGEPGMSEGRRGLGRGLSALLGEVDAAPAQAPGEQLGGSREAPIEILQRNPDQPRRTFREEDLEDLSNSIREKGVLQPILVRPSPDTAGEYQIVAGERAWRAAQRAGLKTVPIMVRELDDLAVLEIGIIENVQRADLNVLEEALSYKVLMEKFERTQENIAQTIGKSXSHVANXMRLLXLPDEVQSYLVSGELTAXHARAIAAAADPVALAKQIIEGGLSVRETEALARKAPNLSAGKSKGGRPPRVKDTDTQALESDLSSVLGLDVSIDHRGSTGTLTITYATLEQLDDLCNRLTRGI

Variants of: B1
Assay: one-hybrid fitness for binding NBS DNA (the Noc-binding site; scaled: cognate 1, non-cognate 0); higher = stronger binding
Conditions: with NBS DNA site
Method in brief: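 Fitness is the rescaled log change in variant-to-wild-type read ratio, measured by Illumina sequencing of plasmids before and after bacterial one-hybrid selection. The scale puts cognate at 1 and non-cognate at 0. Selection of Caulobacter ParB libraries, four specificity codons randomised, took place in E. coli USO with a HIS3 reporter, site 19 bp from the promoter, over 48 hours at 37°C on M9-minus-histidine with 0.1 mM IPTG and 5 mM 3-AT.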

Variant | one-hybrid fitness for binding NBS DNA
SKSN | ≤ 0.2
FTHL | ≤ 0.2
FCPG | ≤ 0.2
FALV | ≤ 0.2
VQFL | ≤ 0.2
KHYC | ≤ 0.2
GTIR | ≤ 0.2
PSAF | ≤ 0.2
ERVF | ≤ 0.2
LVTQ | ≤ 0.2
PPRW | ≤ 0.2
CVNW | ≤ 0.2
GVLV | ≤ 0.2
FSAS | ≤ 0.2
ETSI | ≤ 0.2
PFLD | ≤ 0.2
WSWL | ≤ 0.2
ETLG | ≤ 0.2
RYLG | ≤ 0.2
RVWA | ≤ 0.2
QNWT | ≤ 0.2
KVEE | ≤ 0.2
DESI | ≤ 0.2
EAGA | ≤ 0.2

Variant | one-hybrid fitness for binding NBS DNA
DDTL | ≤ 0.2
YQKR | ≤ 0.2
IGPS | ≤ 0.2
YFTC | ≤ 0.2
KITW | ≤ 0.2
FQSN | ≤ 0.2
EDMR | ≤ 0.2
YQMG | ≤ 0.2
RYAR | 0.43
RSAR | 0.438
TIHF | ≤ 0.2
RWGN | ≤ 0.2
GDGR | ≤ 0.2
NEGY | ≤ 0.2
EFDL | ≤ 0.2
THPS | ≤ 0.2
AMTC | ≤ 0.2
DGNP | ≤ 0.2
TANL | ≤ 0.2
PEDT | ≤ 0.2
KPVV | ≤ 0.2
RRRN | 0.618
LQKD | ≤ 0.2
LRIM | ≤ 0.2

Variant | one-hybrid fitness for binding NBS DNA
STMG | ≤ 0.2
RGAA | ≤ 0.2
ATPN | ≤ 0.2
APWC | ≤ 0.2
LGDQ | ≤ 0.2
FNHR | ≤ 0.2
AIYR | ≤ 0.2
QVAW | ≤ 0.2
SSPM | ≤ 0.2
PVVE | ≤ 0.2
SSNV | ≤ 0.2
ETIM | ≤ 0.2
TRVG | ≤ 0.2
WCKT | ≤ 0.2
HIQG | ≤ 0.2
ESPS | ≤ 0.2
TMWS | ≤ 0.2
GPIC | ≤ 0.2
WING | ≤ 0.2
RHMT | 0.363
QPRW | ≤ 0.2
HARR | ≤ 0.2
RLYA | ≤ 0.2
TIKA | ≤ 0.2

Variant | one-hybrid fitness for binding NBS DNA
RVLF | ≤ 0.2
CCYG | ≤ 0.2
TFSW | ≤ 0.2
RARN | ≤ 0.2
FCLC | ≤ 0.2
CGLK | ≤ 0.2
TSQQ | ≤ 0.2
CKKC | ≤ 0.2
RKGH | 0.301
WKKG | ≤ 0.2
HMWS | ≤ 0.2
VERP | ≤ 0.2
TDLS | ≤ 0.2
RTKD | ≤ 0.2
TYPC | ≤ 0.2
LNES | ≤ 0.2
EYHC | ≤ 0.2
PYKT | ≤ 0.2
HTHP | ≤ 0.2
YLAQ | ≤ 0.2
QMNY | 0.212
VQYG | ≤ 0.2
MRMM | ≤ 0.2
CDMS | ≤ 0.2

Variant | one-hybrid fitness for binding NBS DNA
HRPI | ≤ 0.2
HELN | ≤ 0.2
QPPG | ≤ 0.2
SHRE | ≤ 0.2
EDKF | ≤ 0.2
RGNR | ≤ 0.2
YGTF | ≤ 0.2
LLCM | ≤ 0.2
NMFI | ≤ 0.2
RYEA | ≤ 0.2
QYVL | ≤ 0.2
RNMR | ≤ 0.2
GNVC | ≤ 0.2
QNMW | ≤ 0.2
GKNC | ≤ 0.2
WGFP | ≤ 0.2
QDEN | ≤ 0.2
VAMM | ≤ 0.2
YECS | ≤ 0.2
RFDC | ≤ 0.2
HGNL | ≤ 0.2
AHET | ≤ 0.2
PSNL | ≤ 0.2
DPDS | ≤ 0.2

Variant | one-hybrid fitness for binding NBS DNA
RVIP | ≤ 0.2
MVLN | ≤ 0.2
PPGT | ≤ 0.2
DFCR | ≤ 0.2
DTVS | ≤ 0.2
YSPC | ≤ 0.2
VTVY | ≤ 0.2
TWVR | ≤ 0.2
FWKS | ≤ 0.2
TDMC | ≤ 0.2
AYHT | ≤ 0.2
PVAS | ≤ 0.2
TGPK | ≤ 0.2
EKNG | ≤ 0.2
NGTC | ≤ 0.2
KWKD | ≤ 0.2
NRKF | ≤ 0.2
SCTR | ≤ 0.2
QQKP | 0.336
TNEV | ≤ 0.2
FTMR | ≤ 0.2
AYSH | ≤ 0.2
RWRI | ≤ 0.2
TTQQ | ≤ 0.2

Variant | one-hybrid fitness for binding NBS DNA
YDSN | ≤ 0.2
RVPH | ≤ 0.2
TQLV | ≤ 0.2
PMQV | ≤ 0.2
FTAL | ≤ 0.2
IASC | ≤ 0.2
RYVC | ≤ 0.2
RRQM | 0.273
LIRD | ≤ 0.2
KLLY | ≤ 0.2
ALLQ | ≤ 0.2
TPFW | ≤ 0.2
VLIK | ≤ 0.2
RSSA | ≤ 0.2
WPNG | ≤ 0.2
PDTQ | ≤ 0.2
SRWV | ≤ 0.2
GSHR | ≤ 0.2
WYGS | ≤ 0.2
RLQA | ≤ 0.2
MRIC | ≤ 0.2
VSAE | ≤ 0.2
DAIE | ≤ 0.2
LDKA | ≤ 0.2

Variant | one-hybrid fitness for binding NBS DNA
LNVW | ≤ 0.2
YDRT | ≤ 0.2
LPTM | ≤ 0.2
RNQM | ≤ 0.2
MSFR | ≤ 0.2
RTVS | 0.39
KAHD | ≤ 0.2
HMPD | ≤ 0.2
TSQK | ≤ 0.2
NGII | ≤ 0.2
QSEK | ≤ 0.2
HHYS | ≤ 0.2
YWHI | ≤ 0.2
VSCW | ≤ 0.2
VTFY | ≤ 0.2
KIWG | ≤ 0.2
HLTC | ≤ 0.2
DRGR | ≤ 0.2
TISA | ≤ 0.2
RTIG | ≤ 0.2
RMDC | ≤ 0.2
YNKA | ≤ 0.2
GAWS | ≤ 0.2
QVIL | ≤ 0.2

Variant | one-hybrid fitness for binding NBS DNA
ADRW | ≤ 0.2
NMRV | ≤ 0.2
ASSN | ≤ 0.2
NCKG | ≤ 0.2
SLHT | ≤ 0.2
PTSR | ≤ 0.2
KAAE | ≤ 0.2
VSSH | ≤ 0.2
NQNV | ≤ 0.2
RADG | ≤ 0.2
VEGR | ≤ 0.2
YSIR | ≤ 0.2
GGKY | ≤ 0.2
FFSI | ≤ 0.2
YLER | ≤ 0.2
EHAD | ≤ 0.2
RHCF | ≤ 0.2
GSQS | ≤ 0.2
PPVN | ≤ 0.2
KNTF | ≤ 0.2
PPLM | ≤ 0.2
DTLC | ≤ 0.2
DSHS | ≤ 0.2
TSWR | ≤ 0.2

Variant | one-hybrid fitness for binding NBS DNA
GCLL | ≤ 0.2
EGSG | ≤ 0.2
KGYR | ≤ 0.2
FYLG | ≤ 0.2
PSAD | ≤ 0.2
ARNN | ≤ 0.2
GWLS | ≤ 0.2
QTRT | 0.891
LSYT | ≤ 0.2
DKKL | ≤ 0.2
TGPN | ≤ 0.2
EQYT | ≤ 0.2
SRYA | ≤ 0.2
TTIF | ≤ 0.2
FPHP | ≤ 0.2
RCLT | 0.436
PRWC | ≤ 0.2
QKRA | 0.539
HKCC | ≤ 0.2
QMDV | ≤ 0.2
EKPP | ≤ 0.2
TCVT | ≤ 0.2
WKMG | ≤ 0.2
YWRG | ≤ 0.2

Variant | one-hybrid fitness for binding NBS DNA
QNSE | ≤ 0.2
NGES | ≤ 0.2
RFFN | ≤ 0.2
HEAR | ≤ 0.2
QVWC | ≤ 0.2
TSTP | ≤ 0.2
GRGT | ≤ 0.2
CILY | ≤ 0.2
KGPV | ≤ 0.2
YSFR | ≤ 0.2
QAKM | 0.392
RNAC | ≤ 0.2
TLTY | ≤ 0.2
MTPL | ≤ 0.2
RDPT | ≤ 0.2
AIYY | ≤ 0.2
VWLF | ≤ 0.2
RYKK | ≤ 0.2
LRVV | 0.209
TAPA | ≤ 0.2
REQS | ≤ 0.2
SAAT | ≤ 0.2
CRWF | ≤ 0.2
QIYV | ≤ 0.2

Variant | one-hybrid fitness for binding NBS DNA
FAGT | ≤ 0.2
TEHR | ≤ 0.2
CFQS | ≤ 0.2
VTNI | ≤ 0.2
VKIY | ≤ 0.2
KDSF | ≤ 0.2
ARYG | ≤ 0.2
HCVG | ≤ 0.2
VPQN | ≤ 0.2
AMKL | ≤ 0.2
YLSA | ≤ 0.2
KLSF | ≤ 0.2
QTEP | ≤ 0.2
MDVR | ≤ 0.2
DNWE | ≤ 0.2
QWVR | 0.259
KAKV | ≤ 0.2
SHTR | ≤ 0.2
KTNK | ≤ 0.2
CHPI | ≤ 0.2
IWLD | ≤ 0.2
QHKK | 0.416
WSSD | ≤ 0.2
ACKG | ≤ 0.2

Variant | one-hybrid fitness for binding NBS DNA
RAHG | ≤ 0.2
FLSD | ≤ 0.2
CMYS | ≤ 0.2
SSCH | ≤ 0.2
PPND | ≤ 0.2
PLRW | ≤ 0.2
GYAL | ≤ 0.2
MPQR | ≤ 0.2
RMTD | ≤ 0.2
SVLK | ≤ 0.2
TQMG | ≤ 0.2
PHTE | ≤ 0.2
YLPI | ≤ 0.2
HSMF | ≤ 0.2
KRLI | ≤ 0.2
WHDG | ≤ 0.2
ESNP | ≤ 0.2
VNHL | ≤ 0.2
